About 14,000 (4.5%) of roughly 310,000 compounds showed an effect of 50% or more. The effect is printed as a negative number. The list shows a part of the results.
biological target: human ether-à-go-go-related gene (hERG) potassium channel (human, UniProt Q12809); experiment: primary screen, population patch clamp on CHO cells stably expressing hERG
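Note: peak tail current of the secondary pulse compared with the same well before compound.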

Chain of human ether-à-go-go-related gene (hERG) potassium channel (Q12809 whole entry, looked up): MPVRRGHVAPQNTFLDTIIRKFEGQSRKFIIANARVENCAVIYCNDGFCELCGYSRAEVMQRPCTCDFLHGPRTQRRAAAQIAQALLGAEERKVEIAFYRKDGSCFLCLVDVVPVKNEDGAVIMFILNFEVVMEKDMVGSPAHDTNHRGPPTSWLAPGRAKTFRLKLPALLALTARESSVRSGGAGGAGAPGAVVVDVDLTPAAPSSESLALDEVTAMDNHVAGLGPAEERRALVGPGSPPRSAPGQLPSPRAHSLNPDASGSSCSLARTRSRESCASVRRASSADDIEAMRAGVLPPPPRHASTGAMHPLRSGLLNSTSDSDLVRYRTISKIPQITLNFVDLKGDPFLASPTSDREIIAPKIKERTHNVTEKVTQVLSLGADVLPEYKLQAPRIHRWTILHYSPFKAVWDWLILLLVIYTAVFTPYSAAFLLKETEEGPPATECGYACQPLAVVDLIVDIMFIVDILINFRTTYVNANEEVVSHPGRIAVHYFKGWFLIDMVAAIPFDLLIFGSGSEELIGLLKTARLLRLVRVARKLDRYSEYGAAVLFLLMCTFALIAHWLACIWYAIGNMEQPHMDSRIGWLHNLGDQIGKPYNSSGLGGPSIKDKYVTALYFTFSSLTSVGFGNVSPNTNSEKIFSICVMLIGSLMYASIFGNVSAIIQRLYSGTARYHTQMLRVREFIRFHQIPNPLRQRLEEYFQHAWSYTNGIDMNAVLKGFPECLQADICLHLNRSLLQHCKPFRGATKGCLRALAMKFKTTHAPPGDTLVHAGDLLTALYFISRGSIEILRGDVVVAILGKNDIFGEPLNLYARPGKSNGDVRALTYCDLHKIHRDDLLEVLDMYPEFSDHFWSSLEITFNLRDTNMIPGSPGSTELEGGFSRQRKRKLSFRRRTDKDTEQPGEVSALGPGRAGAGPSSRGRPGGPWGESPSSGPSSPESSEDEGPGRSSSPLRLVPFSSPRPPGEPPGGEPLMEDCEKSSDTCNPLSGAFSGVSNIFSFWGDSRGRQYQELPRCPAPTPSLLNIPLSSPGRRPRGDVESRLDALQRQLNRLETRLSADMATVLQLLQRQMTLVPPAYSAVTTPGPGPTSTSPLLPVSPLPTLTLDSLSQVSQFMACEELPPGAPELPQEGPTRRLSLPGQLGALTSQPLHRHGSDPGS

SMILES	hERG current change (%, negative = inhibition) at 10uM [%]
CCOC(=O)N1CCN(S(=O)(=O)c2ccc(F)cc2)CC1	19.8
CCCCn1c(CN2CCN(CCO)CC2)nc2ccccc21	-66
CCNc1nnc(-c2ccc(C)cc2)o1	1.33
O=C(Nc1ccc2c(c1)CCC2)c1cccc(S(=O)(=O)N2CCN(c3ccccc3)CC2)c1	-8.42
Cc1cc(C)cc(OCC(O)CN2CCN(Cc3ccc4c(c3)OCO4)CC2)c1.Cl (stereo not shown)	-76
O=C(Nc1cc(S(=O)(=O)Nc2ccc(Cl)cc2)ccc1N1CCCCC1)c1ccc(F)cc1Cl	-2.91
CCN(CC)CCn1c(=N)n(CC(O)c2ccc(OC)c(OC)c2)c2ccccc21.Cl (stereo not shown)	14.4
CCN(CC)c1nc2c(s1)C(=O)NCCC2	-13.2
Cc1ccc(/C=C2\SC(=O)N(CCC(=O)N3CCN(C)CC3)C2=O)cc1	-19
COc1ccc(-c2nc(CSCC(=O)NCCCN3CCCC3=O)c(C)o2)cc1	6.73
COc1ccc(C(=O)CSc2nnc(COc3ccccc3)n2Cc2ccco2)cc1	-23.1
C=CCn1c(Sc2ccccc2)nc2c1c(=O)[nH]c(=O)n2C	-7.4
CCc1ccc(N2CC(C(=O)Nc3nc4ccc(S(C)(=O)=O)cc4s3)CC2=O)cc1 (stereo not shown)	-29.1
COc1ccc(CCNC(=O)COC(=O)c2ccc([N+](=O)[O-])o2)cc1	2.31
CC(C)[C@H](NC(=O)c1ccc(F)cc1)C(=O)NC1=NCCS1	13.4
COc1cccc(CN2CC(C(=O)N(C)Cc3[nH]c4ccccc4c3C)CCC2=O)c1 (stereo not shown)	-20.5
COCCNC(=O)c1nn2cccnc2c1Cl	-11.3
CCCNC(=O)COc1coc(CN2CCN(c3cccc(Cl)c3)CC2)cc1=O	-25.7
O=C(NCCc1ccccn1)/C(=C/c1ccco1)NC(=O)c1ccccc1	22.3
CCOC(=O)C1CCN(c2nc(C)nc3c2oc2ccccc23)CC1.Cl	-21.9
Brc1ccc(Oc2ccc(Br)cc2Br)c(Br)c1	20.2
COc1ccc(C(=O)N=C2SC3CS(=O)(=O)CC3N2Cc2ccc(F)cc2)cc1 (stereo not shown)	11.7

SMILES	hERG current change (%, negative = inhibition) at 10uM [%]
CC1=NN(C(N)=S)C(=O)C1N=Nc1cccc(Cl)c1C (stereo not shown)	19.4
COc1cc(OC)c(OC)cc1/C=N/n1c(C)nnc1C	23.1
Cn1ccnc1SCC(=O)c1cccc(Br)c1	-0.753
CCCCCC/C=N/Nc1nnc(Cc2ccccc2)c(=O)[nH]1	11.9
Cc1cc(OCC(=O)N(C)C2CCCCC2)ccc1Cl	-1.71
CCOc1ccc(CCNC(=O)C2CCC(=O)N2CCc2ccccc2)cc1OCC (stereo not shown)	-2.76
CCOC(=O)C(Cc1ccccc1)NC(=O)CCc1nnc2ccc(N3CCOCC3)nn12 (stereo not shown)	11.7
N#Cc1cccc(NS(=O)(=O)c2ccc(S(=O)(=O)N3CCOCC3)cc2)c1	-2.11
CC(C)(C)SCCNS(=O)(=O)c1ccc(Cl)cc1	5.37
CCN(CC)/C(=N\S(=O)(=O)c1ccccc1C)c1ccccc1	-9.32
CC(C)CNc1nnnc2c1sc1nc(N3CCOCC3)c3c(c12)CCCC3	15.4
COc1cc(NC(=O)c2ccccc2Cl)c(OC)cc1NC(=O)CN1CCOCC1	-3.34
CC(=O)NC1C(Oc2ccc(C)cc2)OC2COC(c3ccco3)OC2C1O (stereo not shown)	14.7
CCN(Cc1ccccc1)C(=O)CSc1nc(C)cc2c1C(=O)OC2	-3.11
CCOc1cc(/C=N/NC(=O)c2cc(-c3ccccc3)nc3ccccc23)ccc1O	15.8
Cc1ccnn1CC(=O)N/N=C/c1cn[nH]c1-c1ccccc1	13.1
COc1ccc(C2=NNC(c3ccco3)=Nc3ccc(F)cc32)cc1	-10.8
COc1ccc(NC(=O)c2nc[nH]c2C(=O)N[C@@H](CC(C)C)C(=O)OC(C)(C)C)cc1	18.4
CCC(Sc1nc(=O)cc(N)n1CCc1ccccc1)C(=O)Nc1cc(C)on1 (stereo not shown)	-1.23
CCc1c(C)nc(SCCOc2ccc(OC(C)C)cc2)[nH]c1=O	18.1
CCCCCC[n+]1c(-c2ccc(Cl)cc2Cl)csc1Nc1ccccc1.[Cl-]	4.18
Cc1cc(N2C(=O)CC(Cc3ccccc3)C2=O)no1 (stereo not shown)	10.9

SMILES	hERG current change (%, negative = inhibition) at 10uM [%]
CCCc1cc(C(=O)NCCc2ccccc2)no1	-11.7
Cc1ccc(NC(=O)N2CCCCCC2)cc1	-10.3
CCOC(=O)C1CCCN(Cc2cc(Br)c(OC)cc2OC)C1 (stereo not shown)	-16.4
CCOC(=O)C1=C(c2ccccc2)NC(=O)NC1c1ccc(N(C)C)cc1 (stereo not shown)	-7.08
O=C(CN1CCOCC1)Nc1ccc2c(c1)OCO2	17.3
CC1(C)CC(=O)C2=C(C1)NC1=C(C(=O)c3ccccc31)C2c1cccnc1 (stereo not shown)	13
CCOC(=O)C1CCCN(C(=O)c2cc3c(C)nc4ccccc4c3o2)C1 (stereo not shown)	-43.1
COc1ccc(-n2c(O)c(/C=N/NS(=O)(=O)c3cc(C)ccc3C)c3ccccc3c2=O)cc1OC	11.7
COCCNc1ccc(S(=O)(=O)N2CCCC2)cn1	13.2
Cc1nn(Cc2c(Cl)cccc2Cl)c(C)c1N	9.12
Br.NS(=O)(=O)c1ccc(Nc2nc(-c3ccccc3)cs2)cc1	-26
Cc1c(NC(=O)c2ccc(Cl)c(S(=O)(=O)N3CCCCC3)c2)c(=O)n(-c2ccccc2)n1C	-6.27
O=C(CN1C(=O)NC2(CCCC2)C1=O)OCCOc1ccc(F)cc1	6.62
COc1ccc(C(=O)OCCOc2cccc(Cl)c2)cc1S(=O)(=O)N1CCOCC1	-24.1
O=C(CN1CCCCCC1)Nc1ccccc1Cl	6.75
COCCn1cc(C(=O)NCc2ccco2)c2c3ccccc3n(C)c2c1=O	-20.6
CCOC(=O)c1ccc(S(=O)(=O)Nc2ccc(N3CCOCC3)cc2)cc1	3.9
COc1ccc(C(=O)COc2ccc3c(C)cc(=O)oc3c2)cc1	11.1
CCCn1c(SCc2cc(=O)oc3ccc4ccccc4c23)n[nH]c1=O	-29.2
Cc1cccn2c(=O)c(C=O)c(Nc3ccccc3)nc12	-2.21
O=C(c1ccco1)N1CCN(Cc2nc3ccccc3c(=O)n2-c2ccc(F)cc2)CC1	-18.8
COc1ccc(Nc2nc(NN)nc(C)c2[N+](=O)[O-])cc1	18.5

SMILES	hERG current change (%, negative = inhibition) at 10uM [%]
Cc1ccc(NS(=O)(=O)c2ccc3c(c2)C(=O)c2ccccc2C3=O)c(C)c1	4.16
Cc1cc(=O)n(CC(=O)Nc2cc(Cl)ccc2C)c(C(C)C)n1	-1.59
CCOC(=O)c1oc2ccccc2c1NC(=O)CN1CCOCC1	6.54
Cc1oc(-c2ccccc2)cc1C(=O)NC(Cc1c[nH]c2ccccc12)C(=O)O (stereo not shown)	-0.0668
CCCSc1nc(SCC(=O)NCc2ccccc2)c2c3c(sc2n1)COC(C)(CC)C3 (stereo not shown)	11.5
COc1ccc(COCC(O)CN(Cc2ccccc2)C(C)C)cc1OC (stereo not shown)	0.398
COc1ccc(S(=O)(=O)N2CCC(N3CCN(c4ccccc4OC)CC3)CC2)cc1	-66.5
Cc1nn(-c2ccccc2)c(C)c1/C=N/n1c(-c2ccc(Cl)cc2)n[nH]c1=S	-7.04
CCn1c(SCC(=O)Nc2nonc2C)nnc1-c1ccoc1C	-1.18
COC(=O)Cc1c(O)ccn(Cc2ccccc2OC)c1=O	12.5
CS(=O)(=O)N1CCc2cc(C(=O)N3CCN(c4cccc(Cl)c4)CC3)ccc21	-13.5
CCOc1ccccc1/C=C/C(=O)NCC(=O)N1CCC(N(C)C2CCCCC2C)CC1 (stereo not shown)	-54.7
Cn1c(=O)[nH]c(=O)c2c1nc(N1CCNCC1)n2CCOc1ccccc1	-12.9
CN(C)c1ccc(C=C2C(=O)OC(C)(C)OC2=O)cc1	4.28
COC(C/C=C\[C@H](O)[C@H](C)OCc1ccccc1)OC	-9.28
CCS(=O)(=O)Nc1cccc(-c2cn3c(n2)SCC3)c1	12
COc1cc2c(cc1OC)C(c1ccccc1C(F)(F)F)CC(=O)N2 (stereo not shown)	-11.1
CCOC(=O)C1=C(COC(=O)CCc2ccccc2)NC(=O)NC1C (stereo not shown)	-28.1
CCOc1ccccc1N1CC(C(=O)Nc2c(C)n(C)n(-c3ccccc3)c2=O)CC1=O (stereo not shown)	20.7
O=S(=O)(Nc1ccc(S(=O)(=O)Nc2ncccn2)cc1)c1ccc(Cl)cc1	4.73
CCOC(=O)CC(NS(=O)(=O)c1ccc2[nH]c(=O)sc2c1)c1ccc(C)cc1.Cl (stereo not shown)	-9.3
Cc1cccn2c(=O)c3cc(C(=O)NCc4ccc(F)cc4)c(=N)n(CC4CCCO4)c3nc12 (stereo not shown)	-74

— paper PMC4336329 (PLoS ONE, 2015)
